Laboratory results from PubChem BioAssay AID1345082 (National Center for Advancing Translational Sciences (NCATS), 2018).
Values joined by “and” are separate entries in the source; they are usually repeats but may differ in a detail not shown here. Identical values can stand only once. In all, about 94,000 compounds went through this assay and about 4,000 (4.3%) were called active. The shares of active, inactive and inconclusive entries below differ from those in the screen. The call rests on the fitted dose curve; in most records, active means well fitted inhibition curve with a large enough effect; inconclusive means small, poorly fitted or top-dose-only effect; inactive means no such curve, though single readings can be large or run the other way. Potencies of inconclusive entries are doubtful fits and often do not repeat.

assay: Cytotoxic Profiling in NIH 3T3 Cell Line of Diverse Libraries Using Quantitative High-Throughput Screening; conditions: NIH 3T3 viability, CellTiter-Glo ATP luminescence, 48-72 h; activity change, negative = cytotoxicity: at 96.7 µM (top of the series) unless noted; series mostly up to 96.7 µM; further: nearly all actives have a fitted effect of over 55% in size
In short: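 Luminescent ATP readout (CellTiter-Glo, 10 min RT) after 48 or 72 hr compound exposure of NIH 3T3 cells seeded at 400 cells/well in 1536-well format; quantitative HTS.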
On the % scale 0 is the no-effect control and ±100 the full control effect; potency means the concentration at half of the fitted maximal effect; tags describe the fitted curve by direction and shape.

SMILES | activity change, negative = cytotoxicity | Potency | outcome
COc1ccc(CC(=O)N2C[C@@H]3C[C@H](C2)c2c(-c4ccc(NC(C)=O)cc4)ccc(=O)n2C3)cc1 | inactive: 4.64% | – | –
O=C(c1ccc(F)cc1)N1CCN(c2cc(-c3ccc(F)cc3)[nH]n2)CC1 | – | inconclusive: 44.7 µM [inhibitor, partial curve, poor fit] | –
CC1=C[C@@H](CNC(=O)Cc2ccccc2)[C@H](C(C)C)C[C@H]1Cc1nc2ccncc2[nH]1 | – | inconclusive: 35.5 µM [inhibitor, full curve] | –
Cc1ccc(C(=O)N2CCCCCCNC(=O)[C@@H]3C[C@@H](C(=O)N4CCc5ccccc5C4)C[C@@H]32)s1 | inactive: -27.3% | – | –
COCc1ccc2c(c1)c(OC(C)(C)C(=O)Nc1ccccn1)nn2Cc1ccccc1 | – | inconclusive: 44.7 µM [inhibitor, partial curve, poor fit] | –
Cc1cc(C[C@@H]2COC[C@@H]2NC(=O)CCc2ccc(=O)[nH]n2)on1 | – | – | inactive
O=C(Cc1ccc(Cl)cc1)NC1CCN(c2cc(-c3cccs3)[nH]n2)C1 (centres undefined) | – | inconclusive: 17.8 µM [inhibitor, full curve, poor fit] | –
Cc1cc(=O)n(CC(=O)Nc2ccc(Br)cc2)c(N2CCN(c3ccccc3)CC2)n1 | – | inconclusive: 8.91 µM [inhibitor, full curve, poor fit] | –
C[S+](=O)([O-])N1Cc2ccccc2CC2(CCCCN2Cc2ccncc2)C1 (centres undefined) | inactive: -10.9% | – | –
CC(C)C(=O)Nc1cc(-c2ccncc2)nn1C | inactive: -1.14% [at 138 µM] | – | –
CCc1ccc(NC(=O)Cn2c(N3CCc4ccccc4C3)nc(C)cc2=O)cc1 | – | inconclusive: 50.1 µM [inhibitor, partial curve, poor fit] | –
COCc1ncc(CN2CCC(Cc3nncn3-c3ccccc3)CC2)cn1 | inactive: -1.35% | – | –
O=C1Nc2ccccc2OCC12CCN(Cc1cccs1)CC2 | inactive: -25.2% [at 138 µM] | – | –
CCc1cc(N2CCOC(c3ccc4cc(OC)ccc4c3)C2)nc(C)n1 (centres undefined) | – | inconclusive: 50.1 µM [inhibitor, partial curve, poor fit] | –
CCCCNC(=O)N1CCc2c(c3cc(F)ccc3n2C)C1 | – | inconclusive: 50.1 µM [inhibitor, partial curve, poor fit] | –
CC(C)C1=NS(=O)(=O)c2cc(NC(=O)c3ccco3)ccc2N1c1ccccc1 | – | inconclusive: 50.1 µM [inhibitor, partial curve, poor fit] | –
COc1cccc(CCC2CCCN(C(=O)c3ccc(OC)o3)C2)c1 (centres undefined) | – | inconclusive: 39.8 µM [inhibitor, partial curve, poor fit] | –
Cn1ncc2c(C(=O)NCCc3ccc(F)cc3)cc(-c3ccc([S+](C)(=O)[O-])cc3)nc21 | inactive: -6% | – | –
COc1ccc(C(=O)N2CCC3(C2)C(=NC2CCCC2)NC(=O)N3c2cccc(OC)c2)cc1 (centres undefined) | – | inconclusive: 70.8 µM [inhibitor, single point] | –
Cn1cc2c3c(cccc31)CN(C(=O)CC(C)(C)C)CC2 | inactive: -13.6% | – | –

SMILES | activity change, negative = cytotoxicity | Potency | outcome
CNC(=O)[C@@H]1[C@@H](O)C(=O)N(C)C12CCN(C(=O)Cc1cccs1)CC2 | – | inconclusive: 50.1 µM [inhibitor, partial curve, poor fit] | –
Cc1noc2c(NC3CCN(C)CC3)cc(-c3cccnc3)nc12 | – | inconclusive: 28.2 µM [inhibitor, full curve, poor fit] | –
O=C1NCc2ccccc2CC12CCCN2CC1CC=CCC1 (centres undefined) | – | inconclusive: 70.8 µM [inhibitor, single point] | –
CC(C)c1nc2c(c(-c3ccc(O)cc3)n1)CN(Cc1cccc(F)c1)CC2 | – | inconclusive: 70.8 µM [inhibitor, partial curve, poor fit] | –
O=C(Nc1cnc(-c2cccc(Cl)c2)nc1)c1cc(F)cc(F)c1 | – | inconclusive: 28.2 µM [inhibitor, partial curve] | –
C[S+](=O)([O-])N1CCCN(c2ccc3nnc(-c4ccccc4)n3n2)CC1 | – | inconclusive: 50.1 µM [inhibitor, partial curve, poor fit] | –
O=C(O)CCn1ncc2cc(OC3CCN(C(=O)c4ccccc4OC(F)(F)F)CC3)ccc21 | – | inconclusive: 44.7 µM [inhibitor, partial curve, poor fit] | –
Cn1ncc2c(C(=O)NCc3cccc(F)c3)cc(-c3cccc(F)c3)nc21 | – | inconclusive: 10 µM [inhibitor, full curve] | –
COc1ccccc1C(=O)NC1CCN(Cc2cccc(-c3cccs3)c2)CC1 | – | inconclusive: 44.7 µM [inhibitor, partial curve, poor fit] and active: 31.6 µM | –
COc1cc(=O)n2c(c1C(=O)Nc1ccc(Cl)cc1F)CCCC2 | inactive: 2.51% | – | –
O=C(Cc1cccc(C(F)(F)F)c1)N1CCCc2ncc(C(=O)N3CCCC[C@@H]3Cc3ccccc3)cc21 | – | inconclusive: 44.7 µM [inhibitor, partial curve, poor fit] | –
COc1ccc(-n2c(=O)c3c(n2Cc2ccccc2)CN(Cc2ccc(F)cc2)CC3)cc1 | – | inconclusive: 35.5 µM [inhibitor, partial curve, poor fit] | –
COCC(=O)N1CCN(C(=O)c2cccnc2)C[C@H]1C(=O)N[C@@H](CC1CCCCC1)C(N)=O | – | – | inactive
Cc1ccc(OC(=O)N2CCC(Oc3ccc4c(cnn4CCC(=O)O)c3)CC2)cc1 | – | active: 35.5 µM | –
CCOc1cccc(CNC(=O)C2CCN(c3cnn(CC4CC4)c(=O)c3)C2)c1 (centres undefined) | – | inconclusive: 50.1 µM [inhibitor, partial curve, poor fit] | –
O=C(NC1CC1)c1cc(-c2cccc(C(F)(F)F)c2)c2cccn2n1 | – | inconclusive: 89.1 µM [inhibitor, partial curve, poor fit] | –
O=C(NCCCc1ccccc1)c1ccc2oc(-c3cccnc3)nc2c1 | – | inconclusive: 35.5 µM [inhibitor, partial curve, poor fit] | –
O=C(NCc1cccc(F)c1)c1csc(N2CCN(c3ccc(Cl)cc3)CC2)n1 | inactive: -19.3% | – | –
COCCNC(=O)[C@H]1C[C@H](Oc2ccccc2)CN1Cc1ccc(OC(F)(F)F)cc1 | – | inconclusive: 50.1 µM [inhibitor, partial curve, poor fit] | –
CSCC(=O)N[C@H]1CCN2C(=O)c3cc(-c4ccc5c(c4)OCO5)ccc3NC(=O)[C@H]12 | – | inconclusive: 56.2 µM [inhibitor, partial curve, poor fit] | –

SMILES | activity change, negative = cytotoxicity | Potency | outcome
COCCN1C(=O)CS(=O)(=O)C12CCN(C(=O)c1ccc(Cl)cc1)CC2 | inactive: 0.185% | – | –
CCN1c2cc(C(=O)Nc3cccc(SC)c3)ccc2C(=O)N2CCCCCC21 (centres undefined) | – | active: 22.4 µM | –
O=C(c1ccc2nccnc2c1)N1C[C@H]2CC[C@@H]1CN(C1CCOCC1)C2 | – | inconclusive: 89.1 µM [inhibitor, single point] | –
COc1ccc(-c2cc(N3CCC(NC(=O)c4ccccc4Cl)CC3)n[nH]2)cc1 | – | inconclusive: 39.8 µM [inhibitor, partial curve, poor fit] | –
CN(C)c1nc(-c2ccccc2)nc2c1CCN(C(=O)c1ccncc1)C2 | – | inconclusive: 89.1 µM [inhibitor, single point] | –
Cc1ccccc1CN1CCCC12Cc1ccccc1CNC2=O (centres undefined) | – | inconclusive: 50.1 µM [inhibitor, partial curve, poor fit] | –
Cc1ccc(C(=O)NCC2CCCCC(=O)N2)cn1 (centres undefined) | inactive: 1.74% | – | –
CC(C)c1ccc(CNC(=O)C2CCN(c3cc(C(F)(F)F)ncn3)CC2)cc1 | – | inconclusive: 50.1 µM [inhibitor, partial curve, poor fit] | –
Cc1ccc(-c2nnc3ccc(NCc4cccs4)nn23)nc1 | – | inconclusive: 39.8 µM [inhibitor, partial curve] | –
COc1ccc(CC(=O)N2Cc3ccccc3CC3(CCN(CC4CCNC4)C3)C2)cc1 (centres undefined) | – | inconclusive: 44.7 µM [inhibitor, partial curve, poor fit] | –
CN(Cc1cc(C[C@@H]2C[C@H](NC(=O)COc3ccccc3)C2(C)C)no1)c1ccccc1 | – | inconclusive: 25.1 µM [inhibitor, full curve, poor fit] | –
CN1C[C@@H](NC(=O)C2CC2)C[C@H]1c1nc(-c2ccc3ccccc3c2)no1 | – | inconclusive: 11.2 µM [inhibitor, full curve, poor fit] | –
COCc1cn([C@H]2CO[C@H]3[C@@H]2OC[C@H]3OC(=O)Nc2cccc(C#N)c2)nn1 | – | inconclusive: 50.1 µM [inhibitor, partial curve, poor fit] | –
COc1cccc(-c2cccc(C(=O)N3CCCC3C(=O)N3CCN(Cc4ccccc4)CC3)c2)c1 (centres undefined) | – | inconclusive: 20 µM [inhibitor, full curve] | –
CN(C)c1ccc(NC(=S)N[C@H]2CO[C@H]3[C@@H]2OC[C@H]3OC(=O)Nc2cccc3ccccc23)cc1 | – | inconclusive: 44.7 µM [inhibitor, partial curve, poor fit] | –
CSc1cccc(NC(=O)O[C@@H]2CC[C@]3(C)C(CC[C@@H](O)[C@H]3CC(=O)N3CC[C@H](NC(C)=O)C3)[C@]2(C)CO)c1 (some centres undefined) | inactive: -0.0371% | – | –
Cn1ncc2c(C(=O)NCCc3ccccc3)cc(C(C)(C)C)nc21 | – | inconclusive: 44.7 µM [inhibitor, partial curve, poor fit] | –
O=C(NCCc1ccc(F)cc1)C1CCCCN1Cc1ccc(-c2cccs2)cc1 (centres undefined) | – | inconclusive: 22.4 µM [inhibitor, full curve, poor fit] | –
CCCC1=Nc2cc(C(=O)NCCc3ccc(OC)c(OC)c3)ccc2Sc2ccccc21 | – | inconclusive: 22.4 µM [inhibitor, full curve, poor fit] | –
